Measurements from the supplement of paper PMC8728848.
The list shows a part of the results.

Columns and labels:
Assay in all cases: glycan array binding signal (z-score within array); higher = stronger binding
Conditions in all cases: glycan notation: IUPAC condensed, linker removed
[1] = target: Neu5Ac(a2-3)Gal(b1-3)GalNAc6S
Method in brief: (§1)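 The Consortium for Functional Glycomics database supplied 3228 glycan arrays, of which those lacking an available protein sequence were dropped. The binding signal, a within-array Z-score, was averaged across arrays of the same protein sequence and across linkers. Negative scores can be read as non-binding.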

[2] = target: Neu5Ac(a2-3)Gal(b1-3)GlcNAc
Method in brief: as §1

[3] = target: Neu5Ac(a2-3)Gal(b1-3)GlcNAc(b1-3)Gal(b1-3)GlcNAc
Method in brief: as §1

[4] = target: Neu5Ac(a2-3)Gal(b1-3)GlcNAc(b1-3)Gal(b1-4)GlcNAc
Method in brief: as §1

[5] = target: Neu5Ac(a2-3)Gal(b1-3)GlcNAc(b1-3)GalNAc
Method in brief: as §1

[6] = target: Neu5Ac(a2-3)Gal(b1-3)GlcNAc6S
Method in brief: as §1

[7] = target: Neu5Ac(a2-3)Gal(b1-3)[Fuc(a1-4)]GlcNAc
Method in brief: as §1

[8] = target: Neu5Ac(a2-3)Gal(b1-3)[Fuc(a1-4)]GlcNAc(b1-3)Gal(b1-3)[Fuc(a1-4)]GlcNAc
Method in brief: as §1

[9] = target: Neu5Ac(a2-3)Gal(b1-3)[Fuc(a1-4)]GlcNAc(b1-3)Gal(b1-4)[Fuc(a1-3)]GlcNAc
Method in brief: as §1

[10] = target: Neu5Ac(a2-3)Gal(b1-3)[Neu5Ac(a2-3)Gal(b1-4)]GlcNAc
Method in brief: as §1

[11] = target: Neu5Ac(a2-3)Gal(b1-3)[Neu5Ac(a2-6)]GalNAc
Method in brief: as §1

Neu5Ac(a2-3)Gal(b1-4)Glc = target: Neu5Ac(a2-3)Gal(b1-4)Glc
Method in brief: as §1

[12] = target: Neu5Ac(a2-3)Gal(b1-4)GlcNAc
Method in brief: as §1

[13] = target: Neu5Ac(a2-3)Gal(b1-4)GlcNAc(b1-2)Man(a1-3)[GlcNAc(b1-2)Man(b1-4)GlcNAc(b1-2)Man(a1-6)]Man(b1-4)GlcNAc(b1-4)GlcNAc
Method in brief: as §1

[14] = target: Neu5Ac(a2-3)Gal(b1-4)GlcNAc(b1-2)Man(a1-3)[Neu5Ac(a2-6)Gal(b1-4)GlcNAc(b1-2)Man(a1-6)]Man(b1-4)GlcNAc(b1-4)GlcNAc
Method in brief: as §1

[15] = target: Neu5Ac(a2-3)Gal(b1-4)GlcNAc(b1-3)Gal
Method in brief: as §1

[16] = target: Neu5Ac(a2-3)Gal(b1-4)GlcNAc(b1-3)Gal(b1-3)GlcNAc
Method in brief: as §1

[17] = target: Neu5Ac(a2-3)Gal(b1-4)GlcNAc(b1-3)Gal(b1-4)GlcNAc
Method in brief: as §1

[18] = target: Neu5Ac(a2-3)Gal(b1-4)GlcNAc(b1-3)Gal(b1-4)GlcNAc(b1-3)Gal(b1-4)GlcNAc
Method in brief: as §1

[19] = target: Neu5Ac(a2-3)Gal(b1-4)GlcNAc(b1-3)Gal(b1-4)[Fuc(a1-3)]GlcNAc
Method in brief: as §1

[20] = target: Neu5Ac(a2-3)Gal(b1-4)GlcNAc(b1-3)GalNAc
Method in brief: as §1

[21] = target: Neu5Ac(a2-3)Gal(b1-4)GlcNAc(b1-6)[Gal(b1-3)]GalNAc
Method in brief: as §1

[22] = target: Neu5Ac(a2-3)Gal(b1-4)GlcNAc(b1-6)[Neu5Ac(a2-3)Gal(b1-3)]GalNAc
Method in brief: as §1

[23] = target: Neu5Ac(a2-3)Gal(b1-4)GlcNAc6S
Method in brief: as §1

[24] = target: Neu5Ac(a2-3)Gal(b1-4)[Fuc(a1-3)]GlcNAc
Method in brief: as §1

[25] = target: Neu5Ac(a2-3)Gal(b1-4)[Fuc(a1-3)]GlcNAc(b1-3)Gal
Method in brief: as §1

[26] = target: Neu5Ac(a2-3)Gal(b1-4)[Fuc(a1-3)]GlcNAc(b1-3)Gal(b1-4)GlcNAc
Method in brief: as §1

[27] = target: Neu5Ac(a2-3)Gal(b1-4)[Fuc(a1-3)]GlcNAc(b1-3)Gal(b1-4)[Fuc(a1-3)]GlcNAc(b1-3)Gal(b1-4)[Fuc(a1-3)]GlcNAc
Method in brief: as §1

[28] = target: Neu5Ac(a2-3)Gal(b1-4)[Fuc(a1-3)]GlcNAc(b1-3)GalNAc
Method in brief: as §1

[29] = target: Neu5Ac(a2-3)Gal(b1-4)[Fuc(a1-3)]GlcNAc(b1-6)[Gal(b1-3)]GalNAc
Method in brief: as §1

[30] = target: Neu5Ac(a2-3)Gal(b1-4)[Fuc(a1-3)]GlcNAc6S
Method in brief: as §1

[31] = target: Neu5Ac(a2-3)Gal6S(b1-4)GlcNAc
Method in brief: as §1

[32] = target: Neu5Ac(a2-3)Gal6S(b1-4)[Fuc(a1-3)]GlcNAc
Method in brief: as §1

Neu5Ac(a2-3)GalNAc = target: Neu5Ac(a2-3)GalNAc
Method in brief: as §1

[33] = target: Neu5Ac(a2-3)GalNAc(b1-4)GlcNAc
Method in brief: as §1

[34] = target: Neu5Ac(a2-3)[GalNAc(b1-4)]Gal(b1-4)Glc
Method in brief: as §1

[35] = target: Neu5Ac(a2-3)[GalNAc(b1-4)]Gal(b1-4)GlcNAc
Method in brief: as §1

B1: Gal 9 (Canis lupus) (protein)
chain: MAFSSSQPPYLSPGVPFSGKIQGGLQDGLKITINGTILYCNGTRFAVNFHSGHSDSDIAFHFNPRFEEGGYVVCNTKQKGSWGSEERKMQMPFQMGNPFELCFMVNSCDFKVTVNGSHFTQYSHRVPFHYVDTLSITGAVQLSYISFQSPGVWQSSSAPITQTVIHTVQTTPGQPFPNPIIPPTAYPTPTYPMPFFTSIPGGLYPSKSIIVSGTVLPGAKRFHINLRSGNDIAFHLNPRFNENTVVRNMQINNSWGSEERSLPRKMPFVQGQSFSVWIMCEGHCFKVAVDGEHLFEYYHRLKNLLAINNMEVAGDVQLTHVQT
[1]
  glycan array binding signal (z-score): 0.182
[2]
  glycan array binding signal (z-score): 0.401
[3]
  glycan array binding signal (z-score): 0.38
[4]
  glycan array binding signal (z-score): 0.34
[5]
  glycan array binding signal (z-score): 0.089
[6]
  glycan array binding signal (z-score): -0.027
[7]
  glycan array binding signal (z-score): -0.346
[8]
  glycan array binding signal (z-score): -0.315
[9]
  glycan array binding signal (z-score): -0.306
[10]
  glycan array binding signal (z-score): -0.336
[11]
  glycan array binding signal (z-score): -0.055
Neu5Ac(a2-3)Gal(b1-4)Glc
  glycan array binding signal (z-score): 0.07
[12]
  glycan array binding signal (z-score): 0.067
[13]
  glycan array binding signal (z-score): 0.283
[14]
  glycan array binding signal (z-score): 0.147
[15]
  glycan array binding signal (z-score): 0.219
[16]
  glycan array binding signal (z-score): 0.202
[17]
  glycan array binding signal (z-score): 0.203
[18]
  glycan array binding signal (z-score): 0.602
[19]
  glycan array binding signal (z-score): 0.095
[20]
  glycan array binding signal (z-score): 0.071
[21]
  glycan array binding signal (z-score): 0.001
[22]
  glycan array binding signal (z-score): 0.287
[23]
  glycan array binding signal (z-score): 0.324
[24]
  glycan array binding signal (z-score): -0.21
[25]
  glycan array binding signal (z-score): -0.343
[26]
  glycan array binding signal (z-score): -0.306
[27]
  glycan array binding signal (z-score): -0.327
[28]
  glycan array binding signal (z-score): -0.217
[29]
  glycan array binding signal (z-score): -0.301
[30]
  glycan array binding signal (z-score): -0.33
[31]
  glycan array binding signal (z-score): -0.334
[32]
  glycan array binding signal (z-score): -0.323
Neu5Ac(a2-3)GalNAc
  glycan array binding signal (z-score): -0.328
[33]
  glycan array binding signal (z-score): 0.173
[34]
  glycan array binding signal (z-score): -0.294
[35]
  glycan array binding signal (z-score): -0.336
